Results on 9 molecules are retold here after article PMC7303255.

Sequences of proteins named here, by UniProt entry; tags and fusion partners are left off. A change or cut given only in a name is not applied to a line headed by its entry.
UniProt Q39057: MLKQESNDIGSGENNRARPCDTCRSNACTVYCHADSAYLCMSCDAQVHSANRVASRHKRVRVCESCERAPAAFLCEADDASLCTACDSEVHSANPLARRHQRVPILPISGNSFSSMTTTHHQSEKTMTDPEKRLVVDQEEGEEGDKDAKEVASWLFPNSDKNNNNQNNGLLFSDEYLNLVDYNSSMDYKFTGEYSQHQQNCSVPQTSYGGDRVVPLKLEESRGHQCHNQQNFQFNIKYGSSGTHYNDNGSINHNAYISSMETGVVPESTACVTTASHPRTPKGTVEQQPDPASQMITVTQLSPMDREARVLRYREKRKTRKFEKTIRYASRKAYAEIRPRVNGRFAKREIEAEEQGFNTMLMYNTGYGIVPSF

What all share (test): two-hybrid; pairwise: GAL4 BD fusions in pAS2-1 (target) and GAL4 AD fusions in pACT2 (binder) in AH109; growth on SD/-Leu-Trp-His with various concentrations of 3-AT (20 or 50 mM), 30 °C, 6-9 days; colony-lift filter assay for lacZ
Test [1] addresses T1, CCT motif of CIA2 (CIA2 379-435aa) (Arabidopsis thaliana) (UniProt Q9LU68).
T1 sequence: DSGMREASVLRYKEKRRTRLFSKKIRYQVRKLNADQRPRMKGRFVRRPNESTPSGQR

For test [2], the target named is T2, CIA2 1-189aa fragment (Arabidopsis thaliana) (UniProt Q9LU68).
T2 sequence: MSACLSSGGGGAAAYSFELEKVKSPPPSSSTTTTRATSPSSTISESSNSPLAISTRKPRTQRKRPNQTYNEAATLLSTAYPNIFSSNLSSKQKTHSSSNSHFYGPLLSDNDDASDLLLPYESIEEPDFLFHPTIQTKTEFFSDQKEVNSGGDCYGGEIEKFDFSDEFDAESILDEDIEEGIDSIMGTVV

The target of test [3] is T3, CIA2 190-379aa fragment (Arabidopsis thaliana) (UniProt Q9LU68).
T3 sequence: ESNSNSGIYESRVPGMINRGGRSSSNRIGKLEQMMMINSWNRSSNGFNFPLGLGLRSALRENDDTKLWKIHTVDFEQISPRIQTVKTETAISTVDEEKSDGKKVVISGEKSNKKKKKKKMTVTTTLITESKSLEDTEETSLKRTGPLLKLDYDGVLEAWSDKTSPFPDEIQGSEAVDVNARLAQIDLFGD

Test [4] deals with T4, CIA2 330-435aa fragment (Arabidopsis thaliana) (UniProt Q9LU68).
T4 sequence: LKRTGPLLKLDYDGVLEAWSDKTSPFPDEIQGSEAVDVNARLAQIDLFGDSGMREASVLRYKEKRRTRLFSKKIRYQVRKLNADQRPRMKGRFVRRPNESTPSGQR

In test [5] the target is T5, full-length CIA2 (CIA2FL) in pAS2-1 or pACT2 (Arabidopsis thaliana) (UniProt Q9LU68).
T5 sequence: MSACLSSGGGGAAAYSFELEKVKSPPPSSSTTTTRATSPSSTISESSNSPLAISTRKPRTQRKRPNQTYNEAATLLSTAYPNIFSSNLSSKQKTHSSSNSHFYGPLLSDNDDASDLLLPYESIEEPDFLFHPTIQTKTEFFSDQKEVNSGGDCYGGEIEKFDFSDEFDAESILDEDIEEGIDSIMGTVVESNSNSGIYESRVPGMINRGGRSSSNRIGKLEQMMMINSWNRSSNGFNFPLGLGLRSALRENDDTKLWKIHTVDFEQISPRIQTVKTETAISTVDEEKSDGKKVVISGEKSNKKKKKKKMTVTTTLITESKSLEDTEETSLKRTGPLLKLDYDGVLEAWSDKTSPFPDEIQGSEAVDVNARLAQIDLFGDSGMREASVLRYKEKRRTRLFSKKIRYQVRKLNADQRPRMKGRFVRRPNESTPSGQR

Results are given in words; binding and its absence hold for the method and conditions named. Some binding calls cover weakened binding; strength is not graded here.

As to “CO 298-373aa fragment (from UniProt Q39057 298-373) (domain or fragment)”, the binding result in test [1] is given as “no binding”; in test [2], “binds”; in test [3], “no binding”; in test [4] it was “no binding”; in test [5], “binds”.
As to “CO 181-373aa fragment (from UniProt Q39057 181-373) (domain or fragment)”, the binding entry is recorded as “no binding” in test [1]; “binds” in test [2]; “no binding” in test [3]; “no binding” in test [4]; “binds” in test [5].
“full-length CONSTANS (COFL) in pACT2 (from UniProt Q39057 1-373)”: the binding entry in test [1] is listed as “no binding”; in test [2], “binds”; in test [3] it was “no binding”; in test [4], “no binding”; in test [5], “binds”.

B1: full-length CIA2 (CIA2FL) in pAS2-1 or pACT2 (protein, UniProt Q9LU68 1-435)
chain: MSACLSSGGGGAAAYSFELEKVKSPPPSSSTTTTRATSPSSTISESSNSPLAISTRKPRTQRKRPNQTYNEAATLLSTAYPNIFSSNLSSKQKTHSSSNSHFYGPLLSDNDDASDLLLPYESIEEPDFLFHPTIQTKTEFFSDQKEVNSGGDCYGGEIEKFDFSDEFDAESILDEDIEEGIDSIMGTVVESNSNSGIYESRVPGMINRGGRSSSNRIGKLEQMMMINSWNRSSNGFNFPLGLGLRSALRENDDTKLWKIHTVDFEQISPRIQTVKTETAISTVDEEKSDGKKVVISGEKSNKKKKKKKMTVTTTLITESKSLEDTEETSLKRTGPLLKLDYDGVLEAWSDKTSPFPDEIQGSEAVDVNARLAQIDLFGDSGMREASVLRYKEKRRTRLFSKKIRYQVRKLNADQRPRMKGRFVRRPNESTPSGQR
Consider B1, for which the binding entry in test [1] is “no binding”; in test [2], “binds”; in test [4], “binds”; in test [5], “binds”.

B2: full-length NUCLEAR FACTOR Y, Subunit C1 (NF-YC1) in pACT2 (protein, UniProt Q9SMP0 1-234)
chain: MDTNNQQPPPSAAGIPPPPPGTTISAAGGGASYHHLLQQQQQQLQLFWTYQRQEIEQVNDFKNHQLPLARIKKIMKADEDVRMISAEAPILFAKACELFILELTIRSWLHAEENKRRTLQKNDIAAAITRTDIFDFLVDIVPRDEIKDEAAVLGGGMVVAPTASGVPYYYPPMGQPAGPGGMMIGRPAMDPNGVYVQPPSQAWQSVWQTSTGTGDDVSYGSGGSSGQGNLDGQG
Consider B2, for which the values for the binding result in test [1], in test [2] and in test [5] were “no binding”, “binds” and “binds”, respectively.

B3: full-length NUCLEAR FACTOR Y, Subunit B1 (NF-YB1) in pACT2 (protein, UniProt Q9SLG0 1-141)
chain: MADTPSSPAGDGGESGGSVREQDRYLPIANISRIMKKALPPNGKIGKDAKDTVQECVSEFISFITSEASDKCQKEKRKTVNGDDLLWAMATLGFEDYLEPLKIYLARYRELEGDNKGSGKSGDGSNRDAGGGVSGEEMPSW
B3: the binding result is reported as “no binding” in test [1], “binds” in test [2] and “binds” in test [5].

B4: full-length NUCLEAR FACTOR Y, Subunit C9 (NF-YC9) in pACT2 (protein, UniProt Q8L4B2 1-231)
chain: MDQQDHGQSGAMNYGTNPYQTNPMSTTAATVAGGAAQPGQLAFHQIHQQQQQQQLAQQLQAFWENQFKEIEKTTDFKNHSLPLARIKKIMKADEDVRMISAEAPVVFARACEMFILELTLRSWNHTEENKRRTLQKNDIAAAVTRTDIFDFLVDIVPREDLRDEVLGSIPRGTVPEAAAAGYPYGYLPAGTAPIGNPGMVMGNPGGAYPPNPYMGQPMWQQQAPDQPDQEN
Take B4: the binding entry is on record as “no binding” in test [1], “binds” in test [2] and “binds” in test [5].

B5: full-length ABSCISIC ACID … 3 (ABI3) in pACT2 (protein, UniProt Q01593 1-720)
chain: MKSLHVAANAGDLAEDCGILGGDADDTVLMDGIDEVGREIWLDDHGGDNNHVHGHQDDDLIVHHDPSIFYGDLPTLPDFPCMSSSSSSSTSPAPVNAIVSSASSSSAASSSTSSAASWAILRSDGEDPTPNQNQYASGNCDDSSGALQSTASMEIPLDSSQGFGCGEGGGDCIDMMETFGYMDLLDSNEFFDTSAIFSQDDDTQNPNLMDQTLERQEDQVVVPMMENNSGGDMQMMNSSLEQDDDLAAVFLEWLKNNKETVSAEDLRKVKIKKATIESAARRLGGGKEAMKQLLKLILEWVQTNHLQRRRTTTTTTNLSYQQSFQQDPFQNPNPNNNNLIPPSDQTCFSPSTWVPPPPQQQAFVSDPGFGYMPAPNYPPQPEFLPLLESPPSWPPPPQSGPMPHQQFPMPPTSQYNQFGDPTGFNGYNMNPYQYPYVPAGQMRDQRLLRLCSSATKEARKKRMARQRRFLSHHHRHNNNNNNNNNNQQNQTQIGETCAAVAPQLNPVATTATGGTWMYWPNVPAVPPQLPPVMETQLPTMDRAGSASAMPRQQVVPDRRQGWKPEKNLRFLLQKVLKQSDVGNLGRIVLPKKEAETHLPELEARDGISLAMEDIGTSRVWNMRYRFWPNNKSRMYLLENTGDFVKTNGLQEGDFIVIYSDVKCGKYLIRGVKVRQPSGQKPEAPPSSAATKRQNKSQRNINNNSPSANVVVASPTSQTVK
For B5, the binding result in test [1] is recorded as “no binding”; in test [2], “binds”; in test [5], “binds”.

B6: full-length ARABIDOPSIS RESPONSE REGULATOR 3 (ARR3) in pACT2 (protein, UniProt Q9ZWS9 1-231)
chain: MAKDGGVSCLRRSEMIGIGIGELESPPLDSDQVHVLAVDDSLVDRIVIERLLRITSCKVTAVDSGWRALEFLGLDDDKAAVEFDRLKVDLIITDYCMPGMTGYELLKKIKESTSFKEVPVVIMSSENVMTRIDRCLEEGAEDFLLKPVKLADVKRLRSYLTRDVKVAAEGNKRKLTTPPPPPPLSATSSMESSDSTVESPLSMVDDEDSLTMSPESATSLVDSPMRSPGLA
Turning to B6, the binding result in test [1] is listed as “no binding”; in test [2], “binds”; in test [5], “binds”.
